Results reported in the supplement of paper PMC8728848.
The other results are listed elsewhere or left out.

Key:
Assay in all cases: glycan array binding signal (z-score within array); higher = stronger binding
Settings in all cases: glycan notation: IUPAC condensed, linker removed
[1] = target: Neu5Ac(a2-3)Gal(b1-3)GalNAc(b1-3)Gal(a1-4)Gal(b1-4)Glc
In short: (§1)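 Glycan array data were curated from 3228 arrays in the Consortium for Functional Glycomics database and kept only where the protein sequence was available. Glycan names were converted to IUPAC-condensed notation, and columns mapping to the same glycan were averaged. The binding signal is a within-array Z-score, averaged across arrays of the same protein sequence at different concentrations or buffers and across linkers. Negative Z-scores can be read as non-binding.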

[2] = target: Neu5Ac(a2-3)Gal(b1-3)GalNAc(b1-4)[Neu5Ac(a2-3)]Gal(b1-4)Glc
In short: as §1

[3] = target: Neu5Ac(a2-3)Gal(b1-3)GalNAc(b1-4)[Neu5Ac(a2-8)Neu5Ac(a2-3)]Gal(b1-4)Glc
In short: as §1

[4] = target: Neu5Ac(a2-3)Gal(b1-3)GalNAc6S
In short: as §1

[5] = target: Neu5Ac(a2-3)Gal(b1-3)GlcNAc
In short: as §1

[6] = target: Neu5Ac(a2-3)Gal(b1-3)GlcNAc(b1-2)Man
In short: as §1

[7] = target: Neu5Ac(a2-3)Gal(b1-3)GlcNAc(b1-2)Man(a1-3)[GlcNAc(b1-4)][Neu5Ac(a2-3)Gal(b1-3)GlcNAc(b1-2)Man(a1-6)]Man(b1-4)GlcNAc(b1-4)GlcNAc
In short: as §1

[8] = target: Neu5Ac(a2-3)Gal(b1-3)GlcNAc(b1-2)Man(a1-3)[Neu5Ac(a2-3)Gal(b1-3)GlcNAc(b1-2)Man(a1-6)]Man(b1-4)GlcNAc(b1-4)GlcNAc
In short: as §1

[9] = target: Neu5Ac(a2-3)Gal(b1-3)GlcNAc(b1-3)Gal(b1-3)GlcNAc
In short: as §1

[10] = target: Neu5Ac(a2-3)Gal(b1-3)GlcNAc(b1-3)Gal(b1-4)GlcNAc
In short: as §1

[11] = target: Neu5Ac(a2-3)Gal(b1-3)GlcNAc(b1-3)GalNAc
In short: as §1

[12] = target: Neu5Ac(a2-3)Gal(b1-3)GlcNAc(b1-4)Gal(b1-4)Glc
In short: as §1

[13] = target: Neu5Ac(a2-3)Gal(b1-3)GlcNAc(b1-6)GalNAc
In short: as §1

[14] = target: Neu5Ac(a2-3)Gal(b1-3)GlcNAc6S
In short: as §1

[15] = target: Neu5Ac(a2-3)Gal(b1-3)[Fuc(a1-4)]GlcNAc
In short: as §1

[16] = target: Neu5Ac(a2-3)Gal(b1-3)[Fuc(a1-4)]GlcNAc(b1-3)Gal(b1-3)[Fuc(a1-4)]GlcNAc
In short: as §1

[17] = target: Neu5Ac(a2-3)Gal(b1-3)[Fuc(a1-4)]GlcNAc(b1-3)Gal(b1-4)[Fuc(a1-3)]GlcNAc
In short: as §1

[18] = target: Neu5Ac(a2-3)Gal(b1-3)[GlcNAc(b1-6)]GalNAc
In short: as §1

[19] = target: Neu5Ac(a2-3)Gal(b1-3)[Neu5Ac(a2-6)]GalNAc
In short: as §1

[20] = target: Neu5Ac(a2-3)Gal(b1-3)[Neu5Ac(a2-6)]GlcNAc(b1-3)[Fuc(a1-3)[Gal(b1-4)]GlcNAc(b1-6)]Gal(b1-4)Glc
In short: as §1

[21] = target: Neu5Ac(a2-3)Gal(b1-3)]Neu5Ac(a2-3)Gal(b1-4)]GlcNAc
In short: as §1

Neu5Ac(a2-3)Gal(b1-4)Glc = target: Neu5Ac(a2-3)Gal(b1-4)Glc
In short: as §1

[22] = target: Neu5Ac(a2-3)Gal(b1-4)GlcNAc
In short: as §1

[23] = target: Neu5Ac(a2-3)Gal(b1-4)GlcNAc(b1-2)Man
In short: as §1

[24] = target: Neu5Ac(a2-3)Gal(b1-4)GlcNAc(b1-2)Man(a1-3)[GlcNAc(b1-4)][Neu5Ac(a2-3)Gal(b1-4)GlcNAc(b1-2)Man(a1-6)]Man(b1-4)GlcNAc(b1-4)GlcNAc
In short: as §1

[25] = target: Neu5Ac(a2-3)Gal(b1-4)GlcNAc(b1-2)Man(a1-3)[Neu5Ac(a2-3)Gal(b1-4)GlcNAc(b1-2)Man(a1-6)]Man(b1-4)GlcNAc(b1-4)GlcNAc
In short: as §1

[26] = target: Neu5Ac(a2-3)Gal(b1-4)GlcNAc(b1-2)Man(a1-3)[Neu5Ac(a2-3)Gal(b1-4)GlcNAc(b1-2)Man(a1-6)]Man(b1-4)GlcNAc(b1-4)[Fuc(a1-6)]GlcNAc
In short: as §1

[27] = target: Neu5Ac(a2-3)Gal(b1-4)GlcNAc(b1-2)Man(a1-3)[Neu5Ac(a2-6)Gal(b1-4)GlcNAc(b1-2)Man(a1-6)]Man(b1-4)GlcNAc(b1-4)GlcNAc
In short: as §1

[28] = target: Neu5Ac(a2-3)Gal(b1-4)GlcNAc(b1-2)[Neu5Ac(a2-3)Gal(b1-4)GlcNAc(b1-4)]Man(a1-3)[GlcNAc(b1-4)][Neu5Ac(a2-3)Gal(b1-4)GlcNAc(b1-2)[Neu5Ac(a2-3)Gal(b1-4)GlcNAc(b1-6)]Man(a1-6)]Man(b1-4)GlcNAc(b1-4)GlcNAc
In short: as §1

[29] = target: Neu5Ac(a2-3)Gal(b1-4)GlcNAc(b1-2)[Neu5Ac(a2-3)Gal(b1-4)GlcNAc(b1-4)]Man(a1-3)[GlcNAc(b1-4)][Neu5Ac(a2-3)Gal(b1-4)GlcNAc(b1-4)Man(a1-6)]Man(b1-4)GlcNAc(b1-4)GlcNAc
In short: as §1

[30] = target: Neu5Ac(a2-3)Gal(b1-4)GlcNAc(b1-2)[Neu5Ac(a2-3)Gal(b1-4)GlcNAc(b1-6)]Man(a1-6)[Neu5Ac(a2-3)Gal(b1-4)GlcNAc(b1-2)Man(a1-3)]Man(b1-4)GlcNAc(b1-4)GlcNAc
In short: as §1

[31] = target: Neu5Ac(a2-3)Gal(b1-4)GlcNAc(b1-2)[Neu5Ac(a2-3)Gal(b1-4)GlcNAc(b1-6)]Man(a1-6)[Neu5Ac(a2-3)Gal(b1-4)GlcNAc(b1-2)Man(a1-3)][GlcNAc(b1-4)]Man(b1-4)GlcNAc(b1-4)GlcNAc
In short: as §1

[32] = target: Neu5Ac(a2-3)Gal(b1-4)GlcNAc(b1-3)Gal
In short: as §1

[33] = target: Neu5Ac(a2-3)Gal(b1-4)GlcNAc(b1-3)Gal(b1-3)GlcNAc
In short: as §1

[34] = target: Neu5Ac(a2-3)Gal(b1-4)GlcNAc(b1-3)Gal(b1-4)GlcNAc
In short: as §1

[35] = target: Neu5Ac(a2-3)Gal(b1-4)GlcNAc(b1-3)Gal(b1-4)GlcNAc(b1-2)Man(a1-3)[Neu5Ac(a2-3)Gal(b1-4)GlcNAc(b1-3)Gal(b1-4)GlcNAc(b1-2)Man(a1-6)]Man(b1-4)GlcNAc(b1-4)GlcNAc
In short: as §1

[36] = target: Neu5Ac(a2-3)Gal(b1-4)GlcNAc(b1-3)Gal(b1-4)GlcNAc(b1-3)Gal(b1-4)GlcNAc
In short: as §1

[37] = target: Neu5Ac(a2-3)Gal(b1-4)GlcNAc(b1-3)Gal(b1-4)GlcNAc(b1-3)Gal(b1-4)GlcNAc(b1-2)Man(a1-3)[Neu5Ac(a2-3)Gal(b1-4)GlcNAc(b1-3)Gal(b1-4)GlcNAc(b1-3)Gal(b1-4)GlcNAc(b1-2)Man(a1-6)]GalNAc
In short: as §1

[38] = target: Neu5Ac(a2-3)Gal(b1-4)GlcNAc(b1-3)Gal(b1-4)GlcNAc(b1-3)GalNAc
In short: as §1

[39] = target: Neu5Ac(a2-3)Gal(b1-4)GlcNAc(b1-3)Gal(b1-4)GlcNAc(b1-3)[Neu5Ac(a2-3)Gal(b1-4)GlcNAc(b1-3)Gal(b1-4)GlcNAc(b1-6)]GalNAc
In short: as §1

[40] = target: Neu5Ac(a2-3)Gal(b1-4)GlcNAc(b1-3)Gal(b1-4)GlcNAc(b1-6)[Gal(b1-3)]GalNAc
In short: as §1

[41] = target: Neu5Ac(a2-3)Gal(b1-4)GlcNAc(b1-3)Gal(b1-4)[Fuc(a1-3)]GlcNAc
In short: as §1

[42] = target: Neu5Ac(a2-3)Gal(b1-4)GlcNAc(b1-3)GalNAc
In short: as §1

[43] = target: Neu5Ac(a2-3)Gal(b1-4)GlcNAc(b1-3)[Neu5Ac(a2-3)Gal(b1-4)GlcNAc(b1-6)]GalNAc
In short: as §1

[44] = target: Neu5Ac(a2-3)Gal(b1-4)GlcNAc(b1-6)GalNAc
In short: as §1

B1: F17-L (Escherichia coli) (protein)
chain: GPDDYVPSQIAVNTSTLPGVVIGPADAHTYPRVIGELAGTSNQYVFNGGAIALMRGKFTPALPKIGSITYTFHQGNSRDSSDFDIYDIGVSGLGIIIGMAGYWPATPLVPINSSGIYIDPVGANTNPNTYNGATASFGARLFVAFVATGRLPNGYITIPTRQLGTILLEAKRTSLNNKGLTAPVMLNGGRIQVQSQTHHHHHH
[1]
  glycan array binding signal (z-score): -0.09
[2]
  glycan array binding signal (z-score): -0.133
[3]
  glycan array binding signal (z-score): 0.06
[4]
  glycan array binding signal (z-score): -0.119
[5]
  glycan array binding signal (z-score): -0.088
[6]
  glycan array binding signal (z-score): -0.157
[7]
  glycan array binding signal (z-score): -0.002
[8]
  glycan array binding signal (z-score): -0.092
[9]
  glycan array binding signal (z-score): -0.063
[10]
  glycan array binding signal (z-score): -0.071
[11]
  glycan array binding signal (z-score): -0.074
[12]
  glycan array binding signal (z-score): -0.075
[13]
  glycan array binding signal (z-score): -0.122
[14]
  glycan array binding signal (z-score): -0.172
[15]
  glycan array binding signal (z-score): -0.039
[16]
  glycan array binding signal (z-score): 0.431
[17]
  glycan array binding signal (z-score): 0.865
[18]
  glycan array binding signal (z-score): -0.089
[19]
  glycan array binding signal (z-score): -0.109
[20]
  glycan array binding signal (z-score): -0.114
[21]
  glycan array binding signal (z-score): 0.01
Neu5Ac(a2-3)Gal(b1-4)Glc
  glycan array binding signal (z-score): 0.383
[22]
  glycan array binding signal (z-score): -0.104
[23]
  glycan array binding signal (z-score): -0.024
[24]
  glycan array binding signal (z-score): -0.132
[25]
  glycan array binding signal (z-score): -0.186
[26]
  glycan array binding signal (z-score): -0.016
[27]
  glycan array binding signal (z-score): -0.145
[28]
  glycan array binding signal (z-score): -0.152
[29]
  glycan array binding signal (z-score): -0.155
[30]
  glycan array binding signal (z-score): -0.043
[31]
  glycan array binding signal (z-score): -0.058
[32]
  glycan array binding signal (z-score): -0.131
[33]
  glycan array binding signal (z-score): -0.166
[34]
  glycan array binding signal (z-score): -0.207
[35]
  glycan array binding signal (z-score): -0.12
[36]
  glycan array binding signal (z-score): 0.099
[37]
  glycan array binding signal (z-score): -0.031
[38]
  glycan array binding signal (z-score): -0.144
[39]
  glycan array binding signal (z-score): -0.087
[40]
  glycan array binding signal (z-score): -0.139
[41]
  glycan array binding signal (z-score): 0.006
[42]
  glycan array binding signal (z-score): -0.16
[43]
  glycan array binding signal (z-score): 0.084
[44]
  glycan array binding signal (z-score): -0.122
